Experimental data as given in PubChem BioAssay AID1460 (National Center for Advancing Translational Sciences (NCATS), 2008).
“And” between values parts separate entries of the source, which are not always exact repeats. Equal values may be shown once. The campaign covered roughly 270,000 compounds. About 5,800 (2.1%) were called active. Inconclusive means that the source gave no clear call. Such entries were picked first, then a sample of the others. Calls follow the shape of the dose curve; as a rule, active = well fitted inhibition curve with a large enough effect; inconclusive = small, poorly fitted or top-dose-only effect; inactive = flat fitted curve, though single readings scatter. Potencies of inconclusive entries are doubtful fits and often do not repeat.

Molecular target: Microtubule-associated protein tau (Homo sapiens) (UniProt P10636)
UniProt P10636, sequence (P10636 whole entry, looked up): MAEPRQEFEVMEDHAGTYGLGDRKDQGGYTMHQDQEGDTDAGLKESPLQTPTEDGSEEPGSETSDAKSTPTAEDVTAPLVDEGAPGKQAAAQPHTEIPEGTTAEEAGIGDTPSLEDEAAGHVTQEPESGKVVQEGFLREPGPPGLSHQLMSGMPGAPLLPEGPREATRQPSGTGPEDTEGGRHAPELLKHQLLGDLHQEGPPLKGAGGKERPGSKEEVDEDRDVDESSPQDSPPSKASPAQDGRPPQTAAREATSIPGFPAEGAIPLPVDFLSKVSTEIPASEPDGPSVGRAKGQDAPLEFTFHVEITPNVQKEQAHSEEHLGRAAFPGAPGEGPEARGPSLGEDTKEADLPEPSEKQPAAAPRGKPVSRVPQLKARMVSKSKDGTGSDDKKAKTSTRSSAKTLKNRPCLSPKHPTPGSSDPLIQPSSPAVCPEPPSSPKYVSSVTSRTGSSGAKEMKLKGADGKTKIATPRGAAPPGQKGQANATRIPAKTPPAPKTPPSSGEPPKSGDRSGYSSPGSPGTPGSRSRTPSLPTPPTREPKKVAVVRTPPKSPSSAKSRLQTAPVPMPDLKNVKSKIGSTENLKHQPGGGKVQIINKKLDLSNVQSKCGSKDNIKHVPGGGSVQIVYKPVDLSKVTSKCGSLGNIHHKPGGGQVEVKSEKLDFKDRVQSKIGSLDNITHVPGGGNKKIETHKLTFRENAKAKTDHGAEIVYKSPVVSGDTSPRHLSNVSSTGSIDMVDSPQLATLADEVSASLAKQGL
Assay: qHTS for Inhibitors of Tau Fibril Formation, Thioflavin T Binding; also: nearly all actives have a fitted effect of over 55% in size
Details: recombinant tau K18 P301L (four-repeat tau fragment), heparin-induced fibrillization, ThT fluorescence; series mostly up to 57.4 µM; activity, negative = inhibition: at the top concentration
Method in brief: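 Recombinant human tau K18 fragment […] carrying P301L, 15 uM unlabeled plus 0.24 uM Alexa 594-labeled, was fibrillized with 20 uM heparin in 100 mM sodium acetate pH 7 for 6 hr at 37 C; 30 uM ThT fluorescence read after 1 hr.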
% is scaled to controls: 0 for no effect and ±100 for the full control effect; potency is read from the fitted curve at half-maximal effect; tags tell the direction and shape of the fitted curve.

Structure (SMILES)	Potency	activity, negative = inhibition
NS(=O)(=O)c1ccc(NC(=O)c2csnn2)cc1	inconclusive: 22.4 µM [inhibitor, single point]	–
CC(C)c1ccc(NC(=O)c2cnc3sc(N4CCOCC4)nn3c2=O)cc1	inconclusive: 39.8 µM [inhibitor, single point]	–
C=CCn1c(=NC(=O)c2ccco2)sc2cc(C(=O)OCC)ccc21	inconclusive: 1.58 µM [inhibitor, full curve]	–
CCOc1cc(C2C(C#N)=C(N)Oc3n[nH]c(-c4ccccc4)c32)ccc1O (centres undefined)	inconclusive: 11.2 µM [inhibitor, partial curve]	–
CCN1CCN(c2nc(Nc3cccc(C)c3)nc(N)c2[N+](=O)[O-])CC1	inconclusive: 20 µM [inhibitor, single point]	–
CCCn1c(-c2ccc(F)cc2)nc2c(NCCN3CCCCC3)nc(C)nc21	–	inactive: -5.3%
CC1CCCCN1C(=O)CSc1c2c(nc3cc(Cl)ccc13)CCCC2 (centres undefined)	inconclusive: 5.01 µM [inhibitor, full curve]	–
COc1cccc(NC(=O)C(NCCC(C)C)c2ccccc2)c1 (centres undefined)	–	inactive: -14.3%
COc1cccc(-c2nc(CS(=O)(=O)CC(=O)NCCc3ccc(Cl)cc3)c(C)o2)c1	–	inactive: 0.687%
Cc1ccc(-n2ncc3c(Nc4cccc(C(F)(F)F)c4)ncnc32)cc1C	–	inactive: 14.5%
CCN(Cc1ccccc1)C(=O)Cn1c(=O)n(-c2ccc(Cl)c(Cl)c2)c(=O)c2c(C)c(C(=O)N(C)C)sc21	–	inactive: -14.1%
O=C(NCc1cccnc1)c1nc(-c2cccs2)no1	inconclusive: 2.51 µM [activator, full curve, poor fit]	–
COc1ccc(C(=O)c2c(C)oc3cc([N+](=O)[O-])c(O)c([N+](=O)[O-])c23)cc1	inconclusive: 12.6 µM [inhibitor, partial curve]	–
Cc1cc(NC(=O)Nc2nnc(N3CCCCC3)s2)ccc1Br	–	inactive: -0.651%
O=C(Nc1ccccc1)c1ccc(Nc2c([N+](=O)[O-])cc([N+](=O)[O-])c3ccccc23)cc1	inconclusive: 4.47 µM [inhibitor, partial curve]	–
Cc1ccc(C(=O)N2CCN(Cc3cc(=O)n4nc(-c5ccccc5)sc4n3)CC2)cc1	inconclusive: 25.1 µM [inhibitor, partial curve, poor fit]	–
c1cncc(-c2nc(NCc3ccc4c(c3)OCO4)c3ccccc3n2)c1	inconclusive: 25.1 µM [inhibitor, partial curve, poor fit]	–
COc1ccc2c(c1)sc1nc(-c3ccccc3)cn12	inconclusive: 39.8 µM [activator, single point]	–
C/C(N)=C(/C#N)C(=O)CSc1nc2cc(Cl)ccc2c(=O)n1Cc1ccco1	inconclusive: 28.2 µM [activator, partial curve]	–
CCn1c(SC(C)C)nnc1-c1cc(-c2ccccc2)sc1N	active: 12.6 µM	–
CC1(C)Cc2nc3sc4c(SCC(=O)NCc5ccco5)ncnc4c3cc2CO1	inconclusive: 28.2 µM [inhibitor, partial curve]	–
O=C1CCCC2=C1C(c1ccc(Cl)cc1)n1c(s/c(=C\c3ccc4ccncc4c3)c1=O)=N2 (centres undefined)	inconclusive: 8.91 µM [inhibitor, partial curve]	–

Structure (SMILES)	Potency	activity, negative = inhibition
CC(=O)N1CCc2ccc(C(=O)CN3CCN(c4cccc(C)c4C)CC3)cc21	inconclusive: 31.6 µM [inhibitor, partial curve]	–
CCCCCC(=O)Nc1ccc(C(=O)N/N=C/c2ccc([N+](=O)[O-])cc2)cc1	inconclusive: 1.58 µM [inhibitor, full curve]	–
CN(C)c1ccc(/C=N/N=C2/NC(=O)/C(=C/c3ccc([N+](=O)[O-])cc3)S2)cc1	inconclusive: 1 µM [inhibitor, full curve]	–
CCNc1nc2[nH]c(=O)c3c(c2s1)OC(N)=C(C#N)C3c1ccc(C)cc1 (centres undefined)	inconclusive: 17.8 µM [inhibitor, partial curve]	–
COCCN1CCn2c(nc3cc(Nc4nnc(C)c5ccccc45)ccc32)C1	inconclusive: 28.2 µM [inhibitor, single point]	–
Cc1cccc(Cn2c(COc3ccccc3)nc3ccccc32)c1	–	inactive: -16.3%
CCn1c2ccccc2c2cc(NC(=O)COc3cc(C)ccc3C)ccc21	inconclusive: 2.82 µM [inhibitor, full curve]	–
COc1ccccc1C(=O)Nc1ccc2c(c1)nc(CCNC(=O)c1ccccc1)n2C	inconclusive: 8.91 µM [inhibitor, full curve]	–
C/C(=N\NC(=O)c1c(Br)c(C)nn1C)c1ccc(NC(=O)C(C)Oc2ccc(Cl)cc2C)cc1 (centres undefined)	inconclusive: 3.55 µM [inhibitor, full curve]	–
COc1cc(CN2CCC(C(=O)N3CCN(c4ccccc4F)CC3)CC2)cc(OC)c1O	–	inactive: -11.9%
COCCSc1ccccc1C(=O)Nc1ccc2c(c1)OCO2	–	inactive: -0.965%
COc1ccc(C(=O)Nc2ccc3oc(-c4cccnc4)nc3c2)cc1OC	inconclusive: 398 nM [inhibitor, full curve] and inconclusive: 112 nM [inhibitor, full curve, poor fit]	–
CSc1nsc(/C=C/Nc2ccc(C(=O)O)cc2)c1C#N	inconclusive: 25.1 µM [inhibitor, partial curve]	–
CCCCNc1c(C(=O)OCC)c(C)nc2c1cnn2CC	inconclusive: 28.2 µM [inhibitor, partial curve, poor fit] and inconclusive: 17.8 µM [inhibitor, partial curve]	–
COc1cc(/C=N/NC(=O)c2cccnc2)ccc1OCC(=O)Nc1ccc(C)cc1	inconclusive: 3.98 µM [inhibitor, full curve, poor fit]	–
O=[N+]([O-])c1ccc(C2=NN(c3ccccc3)C(c3ccco3)C2)cc1 (centres undefined)	active: 5.01 µM	–
Nc1c(N=Nc2ccc(-c3ccc(N=Nc4cc(S(=O)(=O)O)c5ccccc5c4N)cc3)cc2)cc(S(=O)(=O)O)c2ccccc12	active: 1.12 µM	–
N#C/C(=C\C=C\c1ccccc1[N+](=O)[O-])c1nc(-c2ccc3c(c2)OCO3)cs1	inconclusive: 7.94 µM [inhibitor, partial curve]	–
CCn1c2ccccc2c2cc([N+](=O)[O-])ccc21	inconclusive: 25.1 µM [inhibitor, partial curve]	–
Cc1oc(C(C)(C)C)cc1C(=O)Nc1ccc(N2CCOCC2)cc1	inconclusive: 12.6 µM [inhibitor, partial curve]	–
Cc1ccc(S(=O)(=O)N/N=C/c2ccc(O)c(O)c2)cc1[N+](=O)[O-]	inconclusive: 11.2 µM [inhibitor, partial curve]	–
CCc1nn2c(=O)c(S(=O)(=O)Nc3ccc(C)c(C)c3)c(C)nc2s1	–	inactive: -2.1%

Structure (SMILES)	Potency	activity, negative = inhibition
CCOC(=O)CNC(=O)c1cc2c(=O)n3cccc(C)c3nc2n1C	–	inactive: -9.85%
COc1cc(OC)cc(C(=O)Oc2ccc(/C=N/Nc3nc4ccccc4s3)cc2OC)c1	inconclusive: 12.6 µM [inhibitor, partial curve]	–
CC(C)Sc1nnc(NC(=O)c2ccco2)s1	–	inactive: -10.2%
CCOC(=O)c1c(C)oc2c(CN3CCN(C)CC3)c(Br)c(OC)c(O)c12	–	inactive: -6.46%
CC(=O)Oc1ccc2c(c1)Oc1cc(OC(C)=O)ccc1C21OC(=O)c2ccccc21	inconclusive: 1.26 µM [activator, full curve]	–
CC1CCc2onc(C(=O)N3CCN(c4cccc(Cl)c4)CC3)c2C1 (centres undefined)	inconclusive: 14.1 µM [inhibitor, partial curve, poor fit]	–
O=C(CCSc1nnc(-c2ccco2)o1)Nc1ccc(Cl)cc1	inconclusive: 3.55 µM [inhibitor, full curve, poor fit]	–
O=C(C1=C[C@@H](c2ccc(C(F)(F)F)cc2)C[C@@H](OCc2ccc(CO)cc2)O1)N1CCN(Cc2ccccc2)CC1	inconclusive: 39.8 µM [inhibitor, single point]	–
CCN(CC)c1ccc(C=Nc2ccc(N(C)C)cc2)c(O)c1	inconclusive: 1.78 µM [inhibitor, full curve]	–
C/C(=N\NC(=O)c1ccc(Cl)c(Cl)c1)c1cccc(NC(=O)C(C)C)c1	inconclusive: 44.7 µM [inhibitor, single point]	–
CC1CCN(c2nnc(-c3cccs3)c3ccccc23)CC1	inconclusive: 22.4 µM [inhibitor, single point]	–
O=C(Nc1cccc2nsnc12)C1CC(=O)N(c2ccccc2)C1 (centres undefined)	inconclusive: 31.6 µM [inhibitor, partial curve]	–
COc1ccc(CCNC(=O)c2sc3cc(C)ccc3c2Cl)cc1	inconclusive: 2.51 µM [inhibitor, full curve]	–
COc1ccc(Nc2nc(-c3ccccc3)c3ccccc3n2)cc1	inconclusive: 11.2 µM [inhibitor, partial curve]	–
O=C1c2ccccc2C(=O)c2c(NCc3cccnc3)cccc21	inconclusive: 3.55 µM [inhibitor, full curve]	–
CCOc1ccc(CNC(=S)N/N=C\c2ccc([N+](=O)[O-])cc2)cc1	inconclusive: 25.1 µM [inhibitor, partial curve]	–
COCCNC(=O)c1cc(-c2cccs2)on1	–	inactive: -14.9%
CCN(CC)C(=S)NC(=O)c1ccc(OC)c(Br)c1	–	inactive: -8.99%
CCN(CC)CCCNc1cc(C)nc2cc(-c3cccs3)nn12	inconclusive: 5.01 µM [inhibitor, full curve, poor fit]	–
Oc1c(C(c2cccs2)N2CCN(c3ccccc3)CC2)ccc2cccnc12 (centres undefined)	inconclusive: 15.8 µM [inhibitor, partial curve]	–
